Results as given in PubChem BioAssay AID493208 (National Center for Advancing Translational Sciences (NCATS), 2011).
The campaign covered roughly 44,000 compounds. About 340 (0.77%) were called active. About 5% were inconclusive and are not listed. Calls follow the shape of the dose curve; as a rule, active = well fitted inhibition curve with a large enough effect; inconclusive = small, poorly fitted or top-dose-only effect; inactive = flat fitted curve, though single readings scatter. The list shows a part of the results.

Test: Acumen qHTS Assay for Inhibitors of the mTORC1 Signaling Pathway in MEF (Tsc2-/-, p53-/-) Cells: Sytravon;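 also: plate controls were DMSO for no effect and rapamycin for full effect; nearly all actives have a fitted effect of over 50% in size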
Conditions: phospho-rpS6 immunofluorescence/PI, 24 h; series mostly up to 38.3 µM; activity change, negative = inhibition: at the top concentration
How it was run: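 Readout is phospho-S6 Alexa 488 signal normalized to PI per well, reported as % active cells with thresholds set from rapamycin (7.5 nM) and DMSO controls. Cells: Tsc2-/-, p53-/- MEFs, 24 hrs compound at 37 C; PI cell number serves as viability.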

Activity change, negative = inhibition, inactive:
Cc1ccc(Nc2cc(-c3ccccc3)nc(C)n2)cc1 -2.1%
CCSC1=NC2(CCN(C(=O)NC3CCCCC3)CC2)N=C1c1ccc(C)c(C)c1 1.88%
Cc1ccc(NC(=O)[C@H](Cc2ccccc2)N2Cc3ccccc3C2=O)cc1 -0.387%
Cc1noc(C)c1S(=O)(=O)NCCc1csc2nc(-c3ccc(F)cc3)nn12 3.38%
CCOC(=O)c1c(NC(=O)c2cc3ccccc3c(=O)o2)sc2c1CCCC2 3.86%
CCCN(CCC)CCNC(=O)c1cc(Sc2ccc(Cl)cc2)nc2ccccc12 -24.1%
CCc1cccc(NC(=O)c2ccc3c(=O)n4nc(Nc5ccccc5OC)sc4nc3c2)c1 -8.81%
COc1nc(Oc2ccc(=O)n(-c3ccccc3)n2)nc(N(C)C)n1 7.01%
COc1ccc(OC)c(NC(=O)CCc2c(C)nc3c(-c4ccccc4)c(C)nn3c2C)c1 -9.38%
Cc1cccc(CSCCNC(=O)CN(c2ccccc2)S(=O)(=O)N(C)C)c1 1.86%
Cc1ccc(S(=O)(=O)c2cn(CC(=O)Nc3ccc4c(c3)OCO4)c3ccc(F)cc3c2=O)cc1 0.0745%
Cc1cccc(Nc2nc3ccccc3n3c(N)nnc23)c1 -13.2%
Cc1cc2n(n1)CCCN2C(=O)Nc1cccc(C)c1C 4.64%
Cc1ccc(Cn2c(=O)c3cccnc3n(Cc3ccc(F)cc3)c2=O)cc1 -6.41%
COc1cccc(N2CCN(c3ncc4c(n3)CCN(Cc3ccc(Br)cc3)C4)CC2)c1 0%
CCc1ccc2oc(C(=O)Nc3nc(-c4ccccc4)ns3)c(C)c2c1 -3.24%
Cc1cccc(CNC(=O)c2ccc(Cn3c(SCc4ccccc4)nc4cccnc43)cc2)c1 -14.4%
Cc1c(C(=O)N(C)C)sc2c1c(=O)n(-c1ccc(F)cc1)c(=O)n2CC(=O)N(C)c1ccccc1 -6.59%
COc1ccccc1CNC(=O)CCC1N=C2c3ccccc3N=C(SCC(=O)NCCc3ccccc3)N2C1=O (stereo not given) -0.892%
Cc1cc2oc(C(=O)Nc3ccc(S(=O)(=O)Nc4onc(C)c4C)cc3)cc(=O)c2cc1C -0.927%
Cc1ccc(C)c(NC(=O)Cn2c(=O)oc3cc(S(=O)(=O)NCc4ccccc4)ccc32)c1 -7.55%
COc1ccc(Cl)cc1NC(=O)c1nc(S(C)(=O)=O)ncc1N(Cc1ccc(C)cc1)Cc1ccco1 -5.59%
CCOc1ccc(-n2c(SC(C)C(=O)OC)nc3c([nH]c4ccccc43)c2=O)cc1 (stereo not given) -4.08%
O=C(CSc1nc(=O)[nH]c2c1CCCC2)NCc1ccc(Cl)cc1 0.877%
CCOC(=O)c1c(NC(=O)/C=C/c2ccc(OC)cc2)sc2c1CCC(C)C2 (stereo not given) -1.64%
Cc1ccccc1C(=O)Nc1sc2c(c1C(=O)N1CCC(C)CC1)CCCC2 -17%
COc1ccc(NC(=O)Cn2c(=O)n(CC3CCCO3)c(=O)c3ccccc32)cc1 (stereo not given) 3.82%
CCCCCCNc1ncnc2c1sc1nc(N3CCOCC3)c3c(c12)CCCC3 -1.62%
CCCCSCCCNC(=O)c1cc(-c2cccnc2)nc2ccc(S(=O)(=O)N3CCC(C)CC3)cc12 -4.22%
O=C(Nc1cccc(C(=O)N2CCN(c3ccc(F)cc3)CC2)c1)c1nsc2ccccc12 -0.867%
CCCN(C(=O)c1nn(-c2ccc(C)cc2)c(=O)c2c1c1ccccc1n2C)c1ccccc1C 2.33%
Cc1oc2ccc(O)c(CN3CCN(Cc4ccccc4)CC3)c2c1C(=O)Nc1cccc(Cl)c1C 3.42%
O=C(Nc1ccc(Oc2ccccc2)cc1)C1CCN(S(=O)(=O)c2ccccc2)CC1 -24.3%
COc1ccccc1/C=C/c1nc(C#N)c(NC(C)c2ccccc2)o1 (stereo not given) -4.1%
CC(=O)c1ccc(N2CCN(C(=O)Cn3ncc4c3-c3ccccc3OC4)CC2)cc1 -11.2%
CCOc1ccc(NC(=O)c2cnn3c(C(F)F)cc(-c4ccc(C)cc4)nc23)cc1 -2.75%
Cc1c(Cl)cccc1NC(=O)CN1C(=O)CSc2ccc(S(=O)(=O)N3CCCC3)cc21 -7.35%
CC(=O)c1cc(-c2ccc(F)cc2)n(CCC(=O)NCc2ccc(C)cc2)c1C -3.37%
Cc1ccc(NC(=O)CN2CCN(C3CCCCC3)C(=O)C2=O)cc1 0%
O=c1cc(COc2cccc(C(F)(F)F)c2)nc2sc3c(n12)CCCC3 0.961%
Cc1ccc(-n2ncc(C(=O)N3CCN(C4CCCCC4)CC3)c2C2CCN(C(=O)OC(C)(C)C)CC2)cc1 -2.61%
CC(C)NC(=O)c1nn(C)c2c1CS(=O)(=O)c1ccccc1-2 5.79%
COC(=O)c1cc(Cl)ccc1NC(=O)Cn1c(C)cc(C)c(C#N)c1=O -15.3%
CC(=O)Nc1ccc2nc(SCc3ccccc3)sc2c1 -0.735%
CCOc1ccccc1CN(CCc1ccc2c(c1)OCO2)Cc1cc(OC)c(OC)cc1OC 1%
COc1ccccc1CNc1nc(-c2ccco2)nn1S(=O)(=O)c1ccc(C)cc1 0%
Clc1ccc(CN2CCc3nc(Nc4ccc5c(c4)OCCO5)ncc3C2)cc1 0%
CCn1c(=O)c2sccc2n2c(CCCC(=O)N3CCN(c4ccccc4OC)CC3)nnc12 3.22%
Cc1ccccc1C(=O)NCc1ccc2c(c1)CCN2C(=O)c1ccccc1 -5.99%
CCOC(=O)N1CCC(NC(=O)c2cnn(-c3cccc(C)c3)c2C2CCN(C(=O)OC(C)(C)C)CC2)CC1 2.82%
COc1ccc(CNC(=O)C(=O)NCC(c2cccs2)S(=O)(=O)c2ccc(C)cc2)cc1 (stereo not given) -3%
O=C(c1ccc(F)cc1)N1c2ncnn2C2(CCCCC2)[C@@H]2CCCC[C@@H]21 -2.96%
Cc1ccc(-c2nsc(NC(=O)c3oc4cc(C)c(Cl)cc4c3C)n2)cc1 -0.501%
CCn1c(SCC(=O)Nc2cccc(Cl)c2)nnc1-c1nonc1NC(C)=O -7.58%
Cc1cccc(NS(=O)(=O)c2nnc(NC(=O)C3CCCCC3)s2)c1 -2.92%
COc1cc2[nH]c(=O)n(Cc3ccc(C(=O)N4CCN(c5cccc(C)c5C)CC4)cc3)c(=O)c2cc1OC -4.65%
CCOC(=O)c1ccc(NC(=O)c2ccc3c(c2)CCN3S(=O)(=O)c2ccc(Cl)cc2)cc1 -4.48%
COc1ccc(CNC(=O)c2cc(Nc3ccc(OC)cc3OC)nc3ccccc23)cc1 2.93%
Cc1ccc(-n2nc(CO)c(C(=O)NCCO)n2)cc1 1.97%
COc1ccc(CCNC(=O)Cn2nnc(-c3cccc(C(F)(F)F)c3)n2)cc1OC 3.56%
